# The supplement of paper PMC8728848
# Some of the results follow.
# What was measured:
# Test in all cases: glycan array binding signal (z-score within array); higher = stronger binding
# Details in all cases: glycan notation: IUPAC condensed, linker removed
# [1] = molecular target: Gal(b1-3)GlcNAc(b1-2)Man(a1-3)[Gal(b1-3)GlcNAc(b1-2)Man(a1-6)]Man(b1-4)GlcNAc(b1-4)GlcNAc
# How it was run: (§1)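 The binding signal is a Z-score computed within each array. Data were drawn from 3228 arrays in the Consortium for Functional Glycomics database, restricted to those with a known protein sequence. Scores were averaged over arrays of the same protein sequence at different concentrations or buffers, and over linkers, and negative values can be taken as non-binding.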
# [2] = molecular target: Gal(b1-3)GlcNAc(b1-2)Man(a1-3)[Gal(b1-3)GlcNAc(b1-2)Man(a1-6)]Man(b1-4)GlcNAc(b1-4)[Fuc(a1-6)]GlcNAc
# How it was run: as §1
# [3] = molecular target: Gal(b1-3)GlcNAc(b1-3)Gal(b1-3)GlcNAc
# How it was run: as §1
# [4] = molecular target: Gal(b1-3)GlcNAc(b1-3)Gal(b1-4)Glc
# How it was run: as §1
# [5] = molecular target: Gal(b1-3)GlcNAc(b1-3)Gal(b1-4)GlcNAc
# How it was run: as §1
# [6] = molecular target: Gal(b1-3)GlcNAc(b1-3)Gal(b1-4)GlcNAc(b1-6)[Gal(b1-3)GlcNAc(b1-3)]Gal(b1-4)Glc
# How it was run: as §1
# [7] = molecular target: Gal(b1-3)GlcNAc(b1-3)Gal(b1-4)[Fuc(a1-3)]GlcNAc(b1-6)[Gal(b1-3)GlcNAc(b1-3)]Gal(b1-4)Glc
# How it was run: as §1
# [8] = molecular target: Gal(b1-3)GlcNAc(b1-3)GalNAc
# How it was run: as §1
# [9] = molecular target: Gal(b1-3)GlcNAc(b1-6)Gal(b1-4)GlcNAc
# How it was run: as §1
# [10] = molecular target: Gal(b1-3)[Fuc(a1-4)]GlcNAc
# How it was run: as §1
# [11] = molecular target: Gal(b1-3)[Fuc(a1-4)]GlcNAc(b1-2)Man(a1-3)[Gal(b1-3)[Fuc(a1-4)]GlcNAc(b1-2)Man(a1-6)]Man(b1-4)GlcNAc(b1-4)GlcNAc
# How it was run: as §1
# [12] = molecular target: Gal(b1-3)[Fuc(a1-4)]GlcNAc(b1-2)Man(a1-3)[Gal(b1-3)[Fuc(a1-4)]GlcNAc(b1-2)Man(a1-6)]Man(b1-4)GlcNAc(b1-4)[Fuc(a1-6)]GlcNAc
# How it was run: as §1
# [13] = molecular target: Gal(b1-3)[Fuc(a1-4)]GlcNAc(b1-3)Gal(b1-3)[Fuc(a1-4)]GlcNAc
# How it was run: as §1
# [14] = molecular target: Gal(b1-3)[Fuc(a1-4)]GlcNAc(b1-3)Gal(b1-4)GlcNAc
# How it was run: as §1
# [15] = molecular target: Gal(b1-3)[Fuc(a1-4)]GlcNAc(b1-3)Gal(b1-4)[Fuc(a1-3)]GlcNAc
# How it was run: as §1
# [16] = molecular target: Gal(b1-3)[GlcNAc(b1-6)]GalNAc
# How it was run: as §1
# [17] = molecular target: Gal(b1-3)[Neu5Ac(a2-6)]GalNAc
# How it was run: as §1
# [18] = molecular target: Gal(b1-3)[Neu5Ac(a2-6)]GlcNAc(b1-6)Gal(b1-4)Glc
# How it was run: as §1
# [19] = molecular target: Gal(b1-3)[Neu5Ac(b2-6)]GalNAc
# How it was run: as §1
# [20] = molecular target: Gal(b1-4)GalNAc(a1-3)[Fuc(a1-2)]Gal(b1-4)GlcNAc
# How it was run: as §1
# [21] = molecular target: Gal(b1-4)GalNAc(b1-3)[Fuc(a1-2)]Gal(b1-4)GlcNAc
# How it was run: as §1
# Gal(b1-4)Glc = molecular target: Gal(b1-4)Glc
# How it was run: as §1
# Gal(b1-4)Glc6S = molecular target: Gal(b1-4)Glc6S
# How it was run: as §1
# Gal(b1-4)GlcNAc = molecular target: Gal(b1-4)GlcNAc
# How it was run: as §1
# [22] = molecular target: Gal(b1-4)GlcNAc(a1-6)Gal(b1-4)GlcNAc
# How it was run: as §1
# [23] = molecular target: Gal(b1-4)GlcNAc(b1-2)Man(a1-3)Man(b1-4)GlcNAc(b1-4)GlcNAc
# How it was run: as §1
# [24] = molecular target: Gal(b1-4)GlcNAc(b1-2)Man(a1-3)[Gal(b1-4)GlcNAc(b1-2)Man(a1-6)]Man(b1-4)GlcNAc(b1-4)GlcNAc
# How it was run: as §1
# [25] = molecular target: Gal(b1-4)GlcNAc(b1-2)Man(a1-3)[Gal(b1-4)GlcNAc(b1-2)Man(a1-6)]Man(b1-4)GlcNAc(b1-4)[Fuc(a1-6)]GlcNAc
# How it was run: as §1
# [26] = molecular target: Gal(b1-4)GlcNAc(b1-2)Man(a1-3)[GlcNAc(b1-2)Man(a1-6)]Man(b1-4)GlcNAc(b1-4)GlcNAc
# How it was run: as §1
# [27] = molecular target: Gal(b1-4)GlcNAc(b1-2)Man(a1-3)[Man(a1-6)]Man(b1-4)GlcNAc(b1-4)GlcNAc
# How it was run: as §1
# [28] = molecular target: Gal(b1-4)GlcNAc(b1-2)Man(a1-6)Man(b1-4)GlcNAc(b1-4)GlcNAc
# How it was run: as §1
# [29] = molecular target: Gal(b1-4)GlcNAc(b1-2)Man(a1-6)[GlcNAc(b1-2)Man(a1-3)]Man(b1-4)GlcNAc(b1-4)GlcNAc
# How it was run: as §1
# [30] = molecular target: Gal(b1-4)GlcNAc(b1-2)Man(a1-6)[Man(a1-3)]Man(b1-4)GlcNAc(b1-4)GlcNAc
# How it was run: as §1
# [31] = molecular target: Gal(b1-4)GlcNAc(b1-2)[Gal(b1-4)GlcNAc(b1-4)]Man(a1-3)[Gal(b1-4)GlcNAc(b1-2)Man(a1-6)]Man(b1-4)GlcNAc(b1-4)GlcNAc
# How it was run: as §1
# [32] = molecular target: Gal(b1-4)GlcNAc(b1-2)[Gal(b1-4)GlcNAc(b1-4)]Man(a1-3)[Gal(b1-4)GlcNAc(b1-2)[Gal(b1-4)GlcNAc(b1-6)]Man(a1-6)]Man(b1-4)GlcNAc(b1-4)GlcNAc
# How it was run: as §1
# [33] = molecular target: Gal(b1-4)GlcNAc(b1-3)Gal(b1-3)GlcNAc
# How it was run: as §1
# [34] = molecular target: Gal(b1-4)GlcNAc(b1-3)Gal(b1-4)Glc
# How it was run: as §1
# [35] = molecular target: Gal(b1-4)GlcNAc(b1-3)Gal(b1-4)GlcNAc
# How it was run: as §1
binder,measurement,setting,value
"CLEC-1 (Homo sapiens), Q9NZH3 (protein) MQAKYSSTRDMLDDDGDTTMSLHSQASATTRHPEPRRTEHRAPSSTWRPVALTLLTLCLVLLIGLAAWGLLFFQYYQLSNTGQDTISQMEERLGNTSQELQSLQVQNIKLAGSLQHVAEKLCRELYNKAGAHRCSPCTEQWKWHGDNCYQFYKDSKSWEDCKYFCLSENSTMLKINKQEDLEFAASQSYSEFFYSYWTGLLRPDSGKAWLWMDGTPFTSELFHIIIDVTSPRSRDCVAILNGMIFSKDCKELKRCVCERRAGMVKPESLHVPPETLGEGD",glycan array binding signal (z-score),[1],0.001
same,glycan array binding signal (z-score),[2],-0.187
same,glycan array binding signal (z-score),[3],-0.027
same,glycan array binding signal (z-score),[4],0.149
same,glycan array binding signal (z-score),[5],-0.215
same,glycan array binding signal (z-score),[6],0.137
same,glycan array binding signal (z-score),[7],-0.376
same,glycan array binding signal (z-score),[8],-0.361
same,glycan array binding signal (z-score),[9],1.24
same,glycan array binding signal (z-score),[10],-0.247
same,glycan array binding signal (z-score),[11],0.409
same,glycan array binding signal (z-score),[12],0.488
same,glycan array binding signal (z-score),[13],-0.604
same,glycan array binding signal (z-score),[14],-0.068
same,glycan array binding signal (z-score),[15],-0.182
same,glycan array binding signal (z-score),[16],-0.033
same,glycan array binding signal (z-score),[17],-0.182
same,glycan array binding signal (z-score),[18],-0.173
same,glycan array binding signal (z-score),[19],0.026
same,glycan array binding signal (z-score),[20],-0.189
same,glycan array binding signal (z-score),[21],0.051
same,glycan array binding signal (z-score),Gal(b1-4)Glc,-0.204
same,glycan array binding signal (z-score),Gal(b1-4)Glc6S,0.136
same,glycan array binding signal (z-score),Gal(b1-4)GlcNAc,-0.169
same,glycan array binding signal (z-score),[22],-0.071
same,glycan array binding signal (z-score),[23],1.79
same,glycan array binding signal (z-score),[24],0.112
same,glycan array binding signal (z-score),[25],0.318
same,glycan array binding signal (z-score),[26],-0.583
same,glycan array binding signal (z-score),[27],11
same,glycan array binding signal (z-score),[28],1.12
same,glycan array binding signal (z-score),[29],-0.462
same,glycan array binding signal (z-score),[30],-0.051
same,glycan array binding signal (z-score),[31],-0.045
same,glycan array binding signal (z-score),[32],-0.142
same,glycan array binding signal (z-score),[33],-0.308
same,glycan array binding signal (z-score),[34],0.23
same,glycan array binding signal (z-score),[35],-0.26
